Consider one molecule from patent US20250340604A1 (ENKEFALOS BIOSCIENCES, published 2025).

The target in the assay is human transferrin receptor (hTfR), form not stated (human, UniProt P02786). As to the kind of experiment: ELISA: hTfR coated at 125 ng/well, concentrated culture supernatant of the fusion, rabbit anti-GCSase and anti-rabbit IgG-HRP, A450; control: supernatant of a non-expressing culture.
Chain of UniProt P02786 (P02786 89-760 limits assumed): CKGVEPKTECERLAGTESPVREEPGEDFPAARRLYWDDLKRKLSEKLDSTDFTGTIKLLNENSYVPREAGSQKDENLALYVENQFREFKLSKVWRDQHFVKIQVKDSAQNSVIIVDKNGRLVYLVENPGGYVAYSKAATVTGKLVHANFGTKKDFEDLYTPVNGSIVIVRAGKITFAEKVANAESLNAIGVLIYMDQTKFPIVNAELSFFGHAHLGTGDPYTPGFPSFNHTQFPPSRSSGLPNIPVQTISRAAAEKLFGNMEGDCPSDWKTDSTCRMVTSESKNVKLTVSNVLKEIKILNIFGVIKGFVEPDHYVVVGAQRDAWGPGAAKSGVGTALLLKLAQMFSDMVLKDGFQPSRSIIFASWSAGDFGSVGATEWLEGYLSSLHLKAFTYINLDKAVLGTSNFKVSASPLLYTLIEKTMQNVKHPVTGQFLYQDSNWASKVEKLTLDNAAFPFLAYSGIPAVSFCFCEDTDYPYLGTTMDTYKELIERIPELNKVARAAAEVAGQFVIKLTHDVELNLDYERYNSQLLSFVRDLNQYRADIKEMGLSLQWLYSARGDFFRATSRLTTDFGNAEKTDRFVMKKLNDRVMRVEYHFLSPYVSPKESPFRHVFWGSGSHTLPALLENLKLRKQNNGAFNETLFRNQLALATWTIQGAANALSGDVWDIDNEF

B1: GlcCSase-CYC17 fusion cyclotide (enzyme)
chain: ARPCIPKSFGYSSVVCVCNATYCDSFDPPTFPALGTFSRYESTRSGRRMELSMGPIQANHTGTGLLLTLQPEQKFQKVKGFGGAMTDAAALNILALSPPAQNLLLKSYFSEEGIGYNIIRVPMASCDFSIRTYTYADTPDDFQLHNFSLPEEDTKLKIPLIHRALQLAQRPVSLLASPWTSPTWLKTNGAVNGKGSLKGQPGDIYHQTWARYFVKFLDAYAEHKLQFWAVTAENEPSAGLLSGYPFQCLGFTPEHQRDFIARDLGPTLANSTHHNVRLLMLDDQRLLLPHWAKVVLTDPEAAKYVHGIAVHWYLDFLAPAKATLGETHRLFPNTMLFASEACVGSKFWEQSVRLGSWDRGMQYSHSIITNLLYHVVGWTDWNLALNPEGGPNWVRNFVDSPIIVDITKDTFYKQPMFYHLGHFSKFIPEGSQRVGLVASQKNDLDAVALMHPDGSAVVVVLNRSSKDVPLTIKDPAVGFLETISPGYSIHTYLWHRQGSGGGSGGGGSGGGGSLE[about 40 residues left out here]
notes: tested as filtered, concentrated HEK293F supernatant; also called glucocerebrosidase-CYC17 fusion; hGCSase-CYC17
On to B1, for which the binding result was “binds”.
